# Assay results reported in the supplement of paper PMC8728848.
# The list shows a part of the results.
# Legend:
# Experiment in all cases: glycan array binding signal (z-score within array); higher = stronger binding
# Conditions in all cases: glycan notation: IUPAC condensed, linker removed
# [1] = biological target: Gal3S(b1-4)Glc
# How it was run: (§1)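 From the Consortium for Functional Glycomics database, 3228 arrays were curated, keeping only those whose protein sequence was available. Binding is given as a within-array Z-score averaged across arrays sharing a protein sequence and across linkers. Negative Z-scores can be read as non-binding.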
# [2] = biological target: Gal3S(b1-4)Glc6S
# How it was run: as §1
# [3] = biological target: Gal3S(b1-4)GlcNAc
# How it was run: as §1
# [4] = biological target: Gal3S(b1-4)[Fuc(a1-3)]Glc6S
# How it was run: as §1
# [5] = biological target: Gal3S(b1-4)[Fuc(a1-3)]GlcNAc
# How it was run: as §1
# [6] = biological target: Gal3S(b1-4)[Fuc(a1-3)]GlcNAc6S
# How it was run: as §1
# [7] = biological target: Gal3S4S(b1-4)GlcNAc
# How it was run: as §1
# [8] = biological target: Gal3S6S(b1-4)GlcNAc
# How it was run: as §1
# [9] = biological target: Gal3S6S(b1-4)GlcNAc6S
# How it was run: as §1
# [10] = biological target: Gal4S(b1-4)GlcNAc
# How it was run: as §1
# [11] = biological target: Gal4S6S(b1-4)GlcNAc
# How it was run: as §1
# [12] = biological target: Gal6P(b1-4)GlcNAc
# How it was run: as §1
# [13] = biological target: Gal6S(b1-3)GlcNAc
# How it was run: as §1
# [14] = biological target: Gal6S(b1-3)GlcNAc6S
# How it was run: as §1
# [15] = biological target: Gal6S(b1-4)Glc
# How it was run: as §1
# [16] = biological target: Gal6S(b1-4)Glc6S
# How it was run: as §1
# [17] = biological target: Gal6S(b1-4)GlcNAc
# How it was run: as §1
# [18] = biological target: Gal6S(b1-4)GlcNAc6S
# How it was run: as §1
# [19] = biological target: GalNAc(a1-3)Gal
# How it was run: as §1
# [20] = biological target: GalNAc(a1-3)GalNAc
# How it was run: as §1
# [21] = biological target: GalNAc(a1-3)GalNAc(b1-3)Gal(a1-4)Gal(b1-4)Glc
# How it was run: as §1
# [22] = biological target: GalNAc(a1-3)GalNAc(b1-3)Gal(a1-4)Gal(b1-4)GlcNAc
# How it was run: as §1
# [23] = biological target: GalNAc(b1-3)Gal
# How it was run: as §1
# [24] = biological target: GalNAc(b1-3)Gal(a1-4)Gal(b1-4)GlcNAc
# How it was run: as §1
# [25] = biological target: GalNAc(b1-3)Gal(a1-4)Gal(b1-4)GlcNAc(b1-3)Gal(b1-4)Glc
# How it was run: as §1
# [26] = biological target: GalNAc(b1-3)Gal(a1-6)Gal(b1-4)Glc
# How it was run: as §1
# [27] = biological target: GalNAc(b1-3)GalNAc
# How it was run: as §1
# [28] = biological target: GalNAc(b1-3)GlcNAc
# How it was run: as §1
# [29] = biological target: GalNAc(b1-4)Gal(b1-4)Glc
# How it was run: as §1
# [30] = biological target: GalNAc(b1-4)GlcNAc
# How it was run: as §1
# [31] = biological target: GalNAc(b1-4)GlcNAc(b1-2)Man
# How it was run: as §1
# [32] = biological target: GalNAc(b1-4)GlcNAc(b1-2)Man(a1-3)[GalNAc(b1-4)GlcNAc(b1-2)Man(a1-6)]Man(b1-4)GlcNAc(b1-4)GlcNAc
# How it was run: as §1
# [33] = biological target: GalNAc(b1-4)GlcNAc(b1-3)GalNAc(b1-4)GlcNAc
# How it was run: as §1
# [34] = biological target: GalNAc(b1-4)GlcNAc6S
# How it was run: as §1
# [35] = biological target: GalNAc(b1-6)GalNAc
# How it was run: as §1
# [36] = biological target: GalNAc3S(b1-4)GlcNAc
# How it was run: as §1
# [37] = biological target: GalNAc3S(b1-4)GlcNAc3S
# How it was run: as §1
# [38] = biological target: GalNAc3S(b1-4)[Fuc(a1-3)]GlcNAc
# How it was run: as §1
# [39] = biological target: GalNAc4S6S(b1-4)GlcNAc
# How it was run: as §1
# [40] = biological target: GalNAc6S(b1-4)GlcNAc
# How it was run: as §1
# [41] = biological target: Glc(a1-4)Glc
# How it was run: as §1
# [42] = biological target: Glc(a1-4)Glc(a1-4)Glc(a1-4)Glc
# How it was run: as §1
# [43] = biological target: Glc(a1-6)Glc(a1-6)Glc
# How it was run: as §1
# [44] = biological target: Glc(a1-6)Glc(a1-6)Glc(a1-6)Glc
# How it was run: as §1
# [45] = biological target: Glc(b1-4)Glc
# How it was run: as §1
binder,measurement,setting,value
EULS2 M2 (Oryza sativa) (protein) MVYCRANPNYAMTARNGAVVLAPANPKDEYQHWIKDMRWSTSIKDEEGYPAFALVNKATGQAIKHSLGQSHPVRLVPYNPEVMDESVLWTESRDVGNGFRCIRMVNNIYLNFDAFHGDKYHGGVRDGTDIVLWKLCEGDSQRWKIQPYYILEQKLISEEDLNSAVDHHHHHH,glycan array binding signal (z-score),[1],0.35
same,glycan array binding signal (z-score),[2],1.07
same,glycan array binding signal (z-score),[3],-0.16
same,glycan array binding signal (z-score),[4],0.271
same,glycan array binding signal (z-score),[5],-0.309
same,glycan array binding signal (z-score),[6],3.8
same,glycan array binding signal (z-score),[7],1.61
same,glycan array binding signal (z-score),[8],1.73
same,glycan array binding signal (z-score),[9],13.3
same,glycan array binding signal (z-score),[10],-0.614
same,glycan array binding signal (z-score),[11],1.33
same,glycan array binding signal (z-score),[12],-0.418
same,glycan array binding signal (z-score),[13],-0.324
same,glycan array binding signal (z-score),[14],4.18
same,glycan array binding signal (z-score),[15],-0.399
same,glycan array binding signal (z-score),[16],4.74
same,glycan array binding signal (z-score),[17],-0.408
same,glycan array binding signal (z-score),[18],2.72
same,glycan array binding signal (z-score),[19],0.765
same,glycan array binding signal (z-score),[20],-0.111
same,glycan array binding signal (z-score),[21],-0.433
same,glycan array binding signal (z-score),[22],-0.254
same,glycan array binding signal (z-score),[23],0.373
same,glycan array binding signal (z-score),[24],-0.716
same,glycan array binding signal (z-score),[25],-0.075
same,glycan array binding signal (z-score),[26],0.855
same,glycan array binding signal (z-score),[27],0.901
same,glycan array binding signal (z-score),[28],-0.575
same,glycan array binding signal (z-score),[29],0.105
same,glycan array binding signal (z-score),[30],-0.429
same,glycan array binding signal (z-score),[31],-0.096
same,glycan array binding signal (z-score),[32],1
same,glycan array binding signal (z-score),[33],1.16
same,glycan array binding signal (z-score),[34],0.197
same,glycan array binding signal (z-score),[35],0.2
same,glycan array binding signal (z-score),[36],-0.447
same,glycan array binding signal (z-score),[37],0.228
same,glycan array binding signal (z-score),[38],-0.834
same,glycan array binding signal (z-score),[39],1.25
same,glycan array binding signal (z-score),[40],0.235
same,glycan array binding signal (z-score),[41],0.157
same,glycan array binding signal (z-score),[42],-0.217
same,glycan array binding signal (z-score),[43],0.123
same,glycan array binding signal (z-score),[44],-0.066
same,glycan array binding signal (z-score),[45],-0.299
